Assay results from PubChem BioAssay AID1508642 (National Center for Advancing Translational Sciences (NCATS), 2021).
About 200 (0.47%) of roughly 43,000 compounds were called active. Not shown: some 12% with an inconclusive outcome. Calls come from the whole dose curve; as a rule, active = well fitted cell-killing curve with a large enough effect; inconclusive = small, poorly fitted or top-dose-only effect, or effect the other way; inactive = flat fitted curve, though single readings scatter. The list shows a part of the results.

Assay: Cell viability qHTS assay in S16 Pmp22-F2sN cells; note: nearly all actives have a fitted effect of over 65% in size
Details: S16 Pmp22-F2sN Schwann cells viability, CellTiter-Glo, 24 h; series mostly up to 57.5 µM; activity change, negative = cytotoxicity: at the top concentration
Outline: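 Viability was measured by CellTiter-Glo luminescence (15 min, room temperature). This followed 24 h at 37 °C of compound exposure (23 nL pin transfer) in S16 Pmp22-F2sN Schwann cells, 500-1,000 per well.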
% is set by controls: 0 for no effect and ±100 for the full control effect.

Structure (SMILES)	activity change, negative = cytotoxicity
CCOc1ccccc1NC(=O)N(Cc1ccc(F)cc1)C1CCN(CC)CC1	inactive: 11%
Cc1ccsc1CN(C(=O)c1oc2ccc(F)cc2c1C)C1CCS(=O)(=O)C1 (centres undefined)	inactive: 1.63%
Cc1ccc(CNC(=O)CC(C)CC2=NS(=O)(=O)c3ccccc3N2)cc1 (centres undefined)	inactive: 2.47%
CCc1ccc(N2CCn3c2nc2c3c(=O)n(C/C=C/c3ccccc3)c(=O)n2C)cc1	inactive: 0.248%
COc1ccc(NC(=O)c2c(NCc3ccc(N(C)C)cc3)sc3c2CCC3)cc1	inactive: -3.72%
Cc1ccc(C)c(-n2c3nc(=O)[nH]c(=O)c-3cc3c(C)nn(-c4ccccc4)c32)c1	inactive: -1.44%
COc1cccc(CNS(=O)(=O)c2cc3[nH]c(=O)c(=O)[nH]c3cc2C)c1	inactive: 13.8%
Cc1ccc(Nc2ncc(C(=O)N3CCN(c4ccc(F)cc4)CC3)c3ccccc23)cc1Cl	inactive: -7.28%
CCOc1ccc(-c2nonc2NC(=O)c2oc3cc(C)c(C)cc3c2C)cc1OCC	inactive: -10.3%
Cc1ccc(NC(=O)C2CCCN2S(=O)(=O)c2cccc3nsnc23)c(C)c1 (centres undefined)	inactive: -4.47%
CCCCn1c(=O)c2oc3ccccc3c2n(Cc2cccc(F)c2)c1=O	inactive: -3.27%
CCC(C)Cn1c(/C=C/c2ccccc2)nc2ccccc21 (centres undefined)	inactive: -20.8%
O=C(CSc1oc(-c2ccco2)nc1S(=O)(=O)c1ccc(Br)cc1)c1ccccc1	inactive: -13.3%
CCS(=O)(=O)c1ccc(O)c(Nc2cc(C)nc(SC)n2)c1	inactive: -20.7%
Cc1ccc(NC2=C(CC(=O)O)C(c3ccc(F)cc3)N(c3ccc(C)cc3)C2=O)cc1 (centres undefined)	inactive: 1.16%
CC(C)c1cnc2c(c1SCC(=O)Nc1ccc(OC(F)(F)F)cc1)c(=O)n(C)c(=O)n2C	inactive: 3.29%
O=C(CCCN1C(=O)c2cccnc2Oc2ccc(Cl)cc21)NCc1ccccc1F	inactive: -9.6%
CCc1nnc2c(Nc3cccc(F)c3)nc3ccc(C(=O)c4ccccc4)cc3n12	inactive: -17.4%
CCOC(=O)c1cccc(NC(=O)c2cc3c(=O)n(C)c4ccccc4c3n2C)c1	inactive: 13.2%
Cc1ccc(CNC(=O)CCN2C(=O)COc3ccc(C)cc32)cc1	inactive: 22%
Cc1ccc(S(=O)(=O)N2CCc3cc(C(=O)Nc4ccc(C(F)(F)F)cc4)ccc32)cc1	inactive: -4.33%
Cc1oc(-c2ccccc2Cl)nc1CS(=O)CC(=O)NCc1ccc(Cl)cc1 (centres undefined)	inactive: 0.815%
COc1ccc(CCNC(=O)CSc2cn(CCNC(=O)c3cccc(C(F)(F)F)c3)c3ccccc23)cc1OC	inactive: -14.7%
CCC1CN(C(=O)Nc2cccc3c2CCCC3)c2cc(Cl)ccc2O1 (centres undefined)	inactive: -13.3%
O=C(Cn1ncc2ccsc2c1=O)N1CCN(c2ccc(F)cc2)CC1	inactive: 0.358%

Structure (SMILES)	activity change, negative = cytotoxicity
Cc1ccc(-n2ncc3c(N4CCC(C(N)=O)CC4)ncnc32)cc1	inactive: 12.2%
COc1cccc(CNC(=O)C(C)n2ncn3cccc3c2=O)c1OC (centres undefined)	inactive: 5.13%
O=C(Cn1c2ncccc2c(=O)n1-c1ccccc1)NCc1ccccc1Cl	inactive: -0.611%
CCOc1ccc(-c2cn(-c3ccc(C)cc3)c(SCC(=O)Nc3ccc(C)cc3)n2)cc1	inactive: 5.83%
Cc1ccc(NC(=O)Cc2coc3ccc(C(C)C)cc23)c(C)c1	inactive: -23.3%
Cc1ccc(COc2ccc(-c3cc(C(F)(F)F)n4nc(C)cc4n3)cc2)cc1	inactive: -2.35%
Fc1ccc(-c2ccc(CNCCSc3nnnn3-c3ccccc3)o2)cc1	inactive: 4.61%
O=S(=O)(Nc1nc2ccccc2nc1Nc1ccccc1Br)c1ccccc1	inactive: 0.243%
O=C(CSc1nc2c([nH]c3ccccc32)c(=O)n1-c1cccc(Cl)c1)NCC1CCCO1 (centres undefined)	inactive: 12.7%
COc1ccc(NC(=O)CCn2c(=O)c3cccn3c3cccnc32)cc1Cl	inactive: 17.8%
O=C(Cn1c(=O)n(CCCS(=O)(=O)C2CCCCC2)c(=O)c2ccccc21)Nc1ccccc1C(F)(F)F	inactive: -3.68%
Cc1ccc(S(=O)(=O)c2[nH]c(-c3ccccc3)nc2SCC(N)=O)cc1	inactive: 1.05%
CC(C)C(=O)N1c2nc(-c3ccco3)nn2C2(CCCCC2)[C@@H]2CCCC[C@@H]21	inactive: -0.32%
Cc1oc2c(cc(NS(=O)(=O)c3ccc(C(C)C)cc3)c3ccccc32)c1C(=O)O	inactive: 1.96%
Cc1ccc(CCNc2ncnc3onc(-c4ccc(F)cc4)c23)cc1	inactive: -1.43%
COc1cccc(CNC(=O)Cn2c(=O)n3nc(-c4cccc(F)c4)nc3c3ccccc32)c1	inactive: 4.38%
CCOc1ccccc1NC(=O)C(CC)Sc1nc2ncccc2[nH]1 (centres undefined)	inactive: -5.64%
Cc1ccc2oc3c(c(=O)c2c1)C(c1ccccc1F)N(CCCN(C)C)C3=O (centres undefined)	inactive: 4.21%
COc1ccc(CNC(=O)C2=C(C)C(=O)OC23CCCCC3)cc1	inactive: -1.71%
COc1ccc(-n2ncc3c2ncn2nc(COc4ccc(Cl)cc4)nc32)cc1	inactive: -16.2%
CCCSc1nnc2c(n1)OC(c1ccc(Br)s1)Nc1ccccc1-2 (centres undefined)	inactive: 1.79%
COC(=O)c1sc2ncccc2c1-n1c(C)ccc1C	inactive: 2.79%
COc1ccccc1CNS(=O)(=O)c1ccc2c(c1)CC(=O)N2C	inactive: 2.33%
CCOC(=O)N1CCN(C(=O)c2c(C)nn(-c3cccc(C)c3)c2-n2cccc2)CC1	inactive: -5.94%
